The source of these data is article PMC4242493.

The list shows a part of the results. The list includes weakly bound sequences.

The assay deals with MaxL homodimer (UniProt P61244). The assay is described as follows: universal protein-binding microarray (PBM). Conditions: PBS-based mixture, 10 nM His-tagged protein dimer, 2% milk, 200 ng/uL BSA, 50 ng/uL salmon testes DNA, 0.02% TX-100; detection with Alexa 488 anti-His …; high values mean tight binding; most listed sequences are background and not binding sites; double strand, one strand shown.
UniProt P61244, sequence (P61244 whole entry): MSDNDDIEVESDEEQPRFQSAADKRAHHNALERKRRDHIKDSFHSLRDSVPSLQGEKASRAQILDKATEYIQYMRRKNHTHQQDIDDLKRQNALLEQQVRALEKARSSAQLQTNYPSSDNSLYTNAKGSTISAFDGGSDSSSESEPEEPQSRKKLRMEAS
TCCGCAAA: the binding signal (normalized occupancy) was found to be 0.0731. The figure for GCCCACAC is 0.0865; for CTGATTTA it is 0.0747. With AAAGTCAG the figure was 0.072; with CGGTTTAA, 0.0746. With GCCAGTAC, the binding signal (normalized occupancy) came to 0.0725. AGAGATCC: the binding signal (normalized occupancy) came out at 0.0829. As for CTCCCACC, the binding signal (normalized occupancy) is 0.0797.

Turning to AGCTGCCA, the binding signal (normalized occupancy) is 0.0736. With AACTCCTG the figure was 0.073; with ACAAGCAG, 0.0746. As to AGTACCCG, the binding signal (normalized occupancy) is 0.0738. With CTAGCAAC the figure was 0.0846; with CAAACTAC, 0.075. For CGAGAGCC, the binding signal (normalized occupancy) was 0.0663. With CGGAAACG the figure was 0.0704; with GGCAGTAC, 0.0749; with GAGCCATA, 0.078. The figure for GGACCGGA is 0.0692; for AATTTGCC it is 0.0682; for GGAAGCGA it is 0.0757. On to ACTCAACT, for which the binding signal (normalized occupancy) is 0.0702. The figure for AGATGAGG is 0.0788. In the case of AATCCAGC, the binding signal (normalized occupancy) was 0.0674. TCGGGGAA: the binding signal (normalized occupancy) was 0.0737. The figure for AACACACG is 0.0945; for ACGCCTGG it is 0.0735; for AACGAAGG it is 0.071. As for CGCTCACG, the binding signal (normalized occupancy) came out at 0.0789. The figure for GGTGCTAA is 0.0771.

ACCACAGT: the binding signal (normalized occupancy) is 0.0708. With TTACGCAA the figure was 0.0727; with ACTGTTAA, 0.0758. With ATGATCAG the figure was 0.0773; with AAGTCGAG, 0.068; with ACGATAAG, 0.0793. The figure for TACCCGTA is 0.0757. For TTCCGGAA, the binding signal (normalized occupancy) worked out at 0.0665. The figure for CATACTGG is 0.0812. In the case of CCTAGCAA, the binding signal (normalized occupancy) was found to be 0.0774. The figure for ACAGGAAA is 0.0719.

Turning to CAAGAAGG, the binding signal (normalized occupancy) was 0.0798.

As to AATTGCGG, the binding signal (normalized occupancy) came to 0.069. For ACCGTATG, the binding signal (normalized occupancy) was found to be 0.082. With ACGGCGCT the figure was 0.0669; with CAGGAAGC, 0.0716.

CGATCAAC: the binding signal (normalized occupancy) was 0.0753. On to AAATCAGA, for which the binding signal (normalized occupancy) came to 0.0744. With CCGCGGAG the figure was 0.0679. With CGAAGAAG the figure was 0.0706; with ACCGTTCA, 0.0774; with ACCGAATC, 0.0769. The figure for ATTCTAGC is 0.0768; for CACCCTAC it is 0.0851; for AAAAAAGC it is 0.0702. Regarding CTAATACC, the binding signal (normalized occupancy) came out at 0.076.

As to CCTCGCAC, the binding signal (normalized occupancy) was found to be 0.0828.

ATTGCACG: the binding signal (normalized occupancy) was 0.0822. With CGCTTGGC the figure was 0.0679; with ATGGGTGG, 0.0852. With TACTAACA the figure was 0.0798. As to AGCATCCG, the binding signal (normalized occupancy) turned out to be 0.0757. With TCACACGA the figure was 0.0859. With GTGCGGAA the figure was 0.0783; with ACAGTTTA, 0.0711; with GACTCGTA, 0.0733.

ATGGCAAG: the binding signal (normalized occupancy) came out at 0.0757. Regarding AAATAGGA, the binding signal (normalized occupancy) is 0.0746. Regarding GGGAATTA, the binding signal (normalized occupancy) amounted to 0.0803. The figure for GCTAACGA is 0.0715.

On to ACGCTAAT, for which the binding signal (normalized occupancy) was found to be 0.0757. The figure for CCTCCATC is 0.0784; for ATGCCCTG it is 0.0757; for CCGGGGTC it is 0.0728. The figure for GATTAGGA is 0.077; for ACCCTTGA it is 0.0737; for CGGCCGGC it is 0.0636. The figure for AAGGTGCG is 0.077. Consider ACCCGTAC, for which the binding signal (normalized occupancy) was 0.0817.

Turning to ACCACATG, the binding signal (normalized occupancy) is 0.192.

For the sequence ATTAGATG, the binding signal (normalized occupancy) was 0.0818. The figure for ACGACAGC is 0.0773. On to ACATCACC, for which the binding signal (normalized occupancy) was 0.0798. Turning to CGAGAGAG, the binding signal (normalized occupancy) turned out to be 0.0753. Consider AATCCGAG, for which the binding signal (normalized occupancy) is 0.0705. As to ACCGCACC, the binding signal (normalized occupancy) stood at 0.0777. For the sequence CTGCAGGA, the binding signal (normalized occupancy) worked out at 0.074. With CGCGCAAC the figure was 0.0771. The figure for CACTGAAA is 0.0741; for GTGTGTTA it is 0.0835. GCAAGTCC: the binding signal (normalized occupancy) was 0.0669. For the sequence CGATTAAC, the binding signal (normalized occupancy) is 0.0792. In the case of CCGCGTAC, the binding signal (normalized occupancy) is 0.0726. In the case of GACTCCCC, the binding signal (normalized occupancy) came to 0.0728.

Turning to CCGATACC, the binding signal (normalized occupancy) is 0.0708.

For the sequence AGGCTGAG, the binding signal (normalized occupancy) is 0.0754. The figure for CGTACGGA is 0.0708; for ACCCGCCT it is 0.0747. For AAAACCTA, the binding signal (normalized occupancy) is 0.0773.

In the case of CCCGCCAA, the binding signal (normalized occupancy) worked out at 0.0699. Turning to GGGGAGGA, the binding signal (normalized occupancy) is 0.0791. Turning to TCGCTGCA, the binding signal (normalized occupancy) was determined as 0.0715. With ATTGCTCA the figure was 0.0734; with CTCAAGAG, 0.0706.

For AGGATGGA, the binding signal (normalized occupancy) stood at 0.0772. For AGACGGGG, the binding signal (normalized occupancy) came to 0.0728. The figure for AGCGTCGG is 0.0689; for AGCAAATA it is 0.0781. CAGATATC: the binding signal (normalized occupancy) amounted to 0.0778.
